Data reported in publication PMC13568701.
Results are given in words; binding and its absence hold for the method and conditions named. Binding seen in cells or lysates may run through a third protein. Some results given as binding are weak or reduced against the parent protein; the word gives no strength. Tags and fused reporters may be left off the sequences shown. Each block holds one molecule with its values, some of them ahead of it.

Chains of the proteins cited; added tags and fusions are not shown.
UniProt Q99250: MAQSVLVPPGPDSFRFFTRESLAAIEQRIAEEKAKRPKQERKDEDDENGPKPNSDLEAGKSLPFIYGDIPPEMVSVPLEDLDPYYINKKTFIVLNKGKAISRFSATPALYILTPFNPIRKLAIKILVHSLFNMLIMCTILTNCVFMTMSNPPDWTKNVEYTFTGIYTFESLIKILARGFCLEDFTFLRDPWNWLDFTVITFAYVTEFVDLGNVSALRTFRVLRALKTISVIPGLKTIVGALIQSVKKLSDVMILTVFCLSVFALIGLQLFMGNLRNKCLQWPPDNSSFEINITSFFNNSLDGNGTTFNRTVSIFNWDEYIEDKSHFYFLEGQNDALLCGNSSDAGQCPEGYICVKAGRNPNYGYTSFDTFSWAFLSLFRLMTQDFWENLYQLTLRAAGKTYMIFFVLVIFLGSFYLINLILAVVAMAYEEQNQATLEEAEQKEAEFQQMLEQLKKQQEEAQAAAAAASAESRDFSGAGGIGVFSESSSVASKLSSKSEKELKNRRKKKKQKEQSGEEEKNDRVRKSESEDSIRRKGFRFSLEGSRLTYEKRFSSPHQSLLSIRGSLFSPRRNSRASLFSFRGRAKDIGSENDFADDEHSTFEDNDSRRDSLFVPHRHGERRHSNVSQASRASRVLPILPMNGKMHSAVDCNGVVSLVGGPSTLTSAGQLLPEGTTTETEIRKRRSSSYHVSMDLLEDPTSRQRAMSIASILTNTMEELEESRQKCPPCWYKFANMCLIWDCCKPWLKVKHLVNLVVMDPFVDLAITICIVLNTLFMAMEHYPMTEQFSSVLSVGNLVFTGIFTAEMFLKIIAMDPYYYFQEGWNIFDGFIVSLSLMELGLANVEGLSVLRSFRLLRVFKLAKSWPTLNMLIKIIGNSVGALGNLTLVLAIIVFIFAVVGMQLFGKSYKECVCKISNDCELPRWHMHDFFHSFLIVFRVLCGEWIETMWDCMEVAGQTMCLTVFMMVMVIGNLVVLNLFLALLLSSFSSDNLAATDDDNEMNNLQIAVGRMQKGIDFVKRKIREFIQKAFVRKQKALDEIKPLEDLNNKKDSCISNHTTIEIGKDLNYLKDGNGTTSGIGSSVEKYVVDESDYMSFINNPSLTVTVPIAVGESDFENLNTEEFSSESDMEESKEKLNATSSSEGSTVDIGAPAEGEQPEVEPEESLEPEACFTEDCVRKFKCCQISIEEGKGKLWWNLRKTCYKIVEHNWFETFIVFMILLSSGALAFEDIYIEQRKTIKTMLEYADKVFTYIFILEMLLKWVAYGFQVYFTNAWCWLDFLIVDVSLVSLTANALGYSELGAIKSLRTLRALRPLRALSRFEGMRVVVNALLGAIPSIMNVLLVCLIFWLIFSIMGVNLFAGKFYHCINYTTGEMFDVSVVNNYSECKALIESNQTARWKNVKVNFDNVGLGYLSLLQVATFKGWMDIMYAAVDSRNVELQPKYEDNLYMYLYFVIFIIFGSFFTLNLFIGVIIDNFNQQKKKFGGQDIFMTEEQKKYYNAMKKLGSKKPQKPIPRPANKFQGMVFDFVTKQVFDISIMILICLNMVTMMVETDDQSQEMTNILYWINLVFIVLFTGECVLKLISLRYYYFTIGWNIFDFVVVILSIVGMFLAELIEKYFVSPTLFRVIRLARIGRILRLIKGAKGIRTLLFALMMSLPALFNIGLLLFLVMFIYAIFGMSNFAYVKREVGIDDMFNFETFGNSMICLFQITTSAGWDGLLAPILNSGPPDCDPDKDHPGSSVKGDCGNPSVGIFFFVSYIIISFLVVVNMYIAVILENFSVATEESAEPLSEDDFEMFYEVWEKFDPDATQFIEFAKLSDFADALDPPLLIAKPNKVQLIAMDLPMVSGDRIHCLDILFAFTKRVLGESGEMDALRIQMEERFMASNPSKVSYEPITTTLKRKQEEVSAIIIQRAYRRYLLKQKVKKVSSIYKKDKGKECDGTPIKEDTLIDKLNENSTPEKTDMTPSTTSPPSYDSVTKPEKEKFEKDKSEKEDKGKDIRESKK
UniProt B1AWN6: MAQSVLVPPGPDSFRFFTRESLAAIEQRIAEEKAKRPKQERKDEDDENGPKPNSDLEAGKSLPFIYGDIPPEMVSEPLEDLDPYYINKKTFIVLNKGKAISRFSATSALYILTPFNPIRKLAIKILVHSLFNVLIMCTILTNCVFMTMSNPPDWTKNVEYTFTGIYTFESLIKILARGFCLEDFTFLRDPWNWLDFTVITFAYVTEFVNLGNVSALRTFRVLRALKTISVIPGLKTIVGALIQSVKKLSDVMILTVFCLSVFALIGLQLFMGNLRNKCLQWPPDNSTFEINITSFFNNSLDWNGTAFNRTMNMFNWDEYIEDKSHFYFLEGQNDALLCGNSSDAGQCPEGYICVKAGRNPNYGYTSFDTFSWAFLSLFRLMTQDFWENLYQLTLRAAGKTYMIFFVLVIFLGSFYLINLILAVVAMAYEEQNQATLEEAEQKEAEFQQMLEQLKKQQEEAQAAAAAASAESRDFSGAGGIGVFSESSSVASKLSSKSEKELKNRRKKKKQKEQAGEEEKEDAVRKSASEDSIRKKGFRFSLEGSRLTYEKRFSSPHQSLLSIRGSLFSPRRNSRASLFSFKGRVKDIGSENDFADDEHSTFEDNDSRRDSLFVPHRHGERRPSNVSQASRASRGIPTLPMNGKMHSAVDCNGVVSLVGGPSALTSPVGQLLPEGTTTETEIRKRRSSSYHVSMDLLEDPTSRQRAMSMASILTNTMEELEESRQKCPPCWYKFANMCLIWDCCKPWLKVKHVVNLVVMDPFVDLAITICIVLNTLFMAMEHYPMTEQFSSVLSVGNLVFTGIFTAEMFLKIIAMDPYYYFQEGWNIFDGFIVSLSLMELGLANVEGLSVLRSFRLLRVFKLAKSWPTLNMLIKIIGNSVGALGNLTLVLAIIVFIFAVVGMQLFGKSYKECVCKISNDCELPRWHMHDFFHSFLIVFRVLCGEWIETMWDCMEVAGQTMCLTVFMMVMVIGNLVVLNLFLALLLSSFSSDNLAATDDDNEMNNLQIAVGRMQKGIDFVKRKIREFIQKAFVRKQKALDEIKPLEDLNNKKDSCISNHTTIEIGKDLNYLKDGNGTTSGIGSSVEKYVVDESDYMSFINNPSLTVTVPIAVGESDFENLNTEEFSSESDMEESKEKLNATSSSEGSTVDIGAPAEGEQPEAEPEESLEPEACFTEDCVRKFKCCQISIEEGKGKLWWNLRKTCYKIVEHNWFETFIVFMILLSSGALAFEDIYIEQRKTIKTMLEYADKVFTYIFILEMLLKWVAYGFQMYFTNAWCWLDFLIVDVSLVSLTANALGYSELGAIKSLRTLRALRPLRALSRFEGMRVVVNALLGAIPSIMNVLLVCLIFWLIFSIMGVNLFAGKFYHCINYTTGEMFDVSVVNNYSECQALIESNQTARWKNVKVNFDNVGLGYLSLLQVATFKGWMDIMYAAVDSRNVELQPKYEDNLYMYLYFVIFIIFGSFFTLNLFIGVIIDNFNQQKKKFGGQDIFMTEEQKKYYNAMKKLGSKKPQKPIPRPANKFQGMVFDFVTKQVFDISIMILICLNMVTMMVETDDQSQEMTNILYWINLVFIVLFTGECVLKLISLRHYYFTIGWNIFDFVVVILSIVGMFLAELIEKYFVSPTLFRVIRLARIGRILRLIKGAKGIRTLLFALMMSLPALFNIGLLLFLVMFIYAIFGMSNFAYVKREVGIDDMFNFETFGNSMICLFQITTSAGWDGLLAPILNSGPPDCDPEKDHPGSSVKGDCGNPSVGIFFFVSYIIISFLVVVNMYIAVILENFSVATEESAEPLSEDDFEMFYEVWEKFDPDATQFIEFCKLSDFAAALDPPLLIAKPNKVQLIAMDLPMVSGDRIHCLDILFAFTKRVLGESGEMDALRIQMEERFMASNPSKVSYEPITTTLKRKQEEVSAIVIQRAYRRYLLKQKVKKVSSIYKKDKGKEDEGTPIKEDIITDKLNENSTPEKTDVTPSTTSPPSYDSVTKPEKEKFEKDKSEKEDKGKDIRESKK

What was measured:
[1] = target: T1, mouse PRRT2-V5 (endogenous PRRT2 with a V5 tag, Prrt2-V5 knock-in mouse) (mouse (endogenous in brain of Prrt2-V5 knock-in mice)) (UniProt E9PUL5); assay: co-IP; brain membrane fractions of Prrt2-V5 knock-in or wild-type mice solubilised in 0.3% DDM; ~200 ug protein with V5-Trap (anti-V5 nanobody) magnetic beads, 4°C, 1.5 h; washes with 0.15% DDM; immunoblot
T1 sequence: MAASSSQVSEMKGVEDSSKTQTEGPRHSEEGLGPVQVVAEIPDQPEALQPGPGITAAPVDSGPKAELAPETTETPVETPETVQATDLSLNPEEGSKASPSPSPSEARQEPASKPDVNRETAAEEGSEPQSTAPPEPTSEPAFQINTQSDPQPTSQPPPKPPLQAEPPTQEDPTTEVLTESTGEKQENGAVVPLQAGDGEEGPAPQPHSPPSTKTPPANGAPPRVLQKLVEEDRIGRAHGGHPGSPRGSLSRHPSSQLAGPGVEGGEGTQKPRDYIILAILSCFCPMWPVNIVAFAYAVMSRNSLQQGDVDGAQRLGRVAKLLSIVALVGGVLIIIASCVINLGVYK

[2] = target: T2, human PRRT2-HA (Proline-Rich Transmembrane Protein 2, HA-tagged) (human) (UniProt Q7Z6L0); assay: co-IP; HEK293T co-transfected with Flag-tagged Nav channel and HA-tagged PRRT2 construct; lysis in 20 mM Tris-HCl, 150 mM NaCl, 0.5% DDM; 400 ug protein with anti-HA nanobody magnetic beads, 4°C, 1 h; washes with 0.05% DDM; immunoblot
T2 sequence: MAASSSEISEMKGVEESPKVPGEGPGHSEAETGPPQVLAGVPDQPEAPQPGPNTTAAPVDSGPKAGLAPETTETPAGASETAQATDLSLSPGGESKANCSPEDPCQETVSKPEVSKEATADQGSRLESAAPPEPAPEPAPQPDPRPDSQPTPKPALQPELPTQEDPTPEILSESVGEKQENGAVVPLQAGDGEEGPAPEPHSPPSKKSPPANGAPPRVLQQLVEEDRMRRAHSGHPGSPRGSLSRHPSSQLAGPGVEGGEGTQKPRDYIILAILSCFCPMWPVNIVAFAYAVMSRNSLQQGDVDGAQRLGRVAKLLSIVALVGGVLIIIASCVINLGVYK

[3] = target: T3, human PRRT2(1-268), HA-tagged N-terminal truncation (human) (UniProt Q7Z6L0); assay: as above
T3 sequence: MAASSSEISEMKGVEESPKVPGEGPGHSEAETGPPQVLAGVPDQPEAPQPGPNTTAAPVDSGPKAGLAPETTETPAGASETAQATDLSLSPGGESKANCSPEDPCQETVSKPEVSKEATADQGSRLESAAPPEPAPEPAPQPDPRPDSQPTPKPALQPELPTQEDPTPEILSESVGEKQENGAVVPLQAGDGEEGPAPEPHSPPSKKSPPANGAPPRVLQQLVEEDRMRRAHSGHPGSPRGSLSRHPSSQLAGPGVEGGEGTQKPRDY

[4] = target: T4, human PRRT2(250-340), HA-tagged C-terminal truncation (human) (UniProt Q7Z6L0); assay: as above
T4 sequence: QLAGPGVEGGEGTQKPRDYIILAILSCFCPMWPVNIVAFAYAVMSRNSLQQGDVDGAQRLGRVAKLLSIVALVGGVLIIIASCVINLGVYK

[5] = target: Flag-Nav1.2 (Flag-tagged voltage-gated sodium channel Nav1.2 alpha subunit) (UniProt Q99250); assay: co-IP; HEK293T co-transfected with Flag-tagged Nav channel and HA-tagged PRRT2 construct; lysis in 20 mM Tris-HCl, 150 mM NaCl, 0.5% DDM; 400 ug protein with anti-Flag magnetic beads, 4°C, 1 h; washes with 0.05% DDM; immunoblot

binding [1]: binds
Molecule: mouse Nav1.2 (endogenous, brain) (from UniProt B1AWN6 1-2006)

binding [2]: binds | binding [3]: no binding | binding [4]: binds
Molecule: Flag-Nav1.2 (Flag-tagged voltage-gated sodium channel Nav1.2 alpha subunit) (from UniProt Q99250 1-2005)

binding [5]: binds
B1: human PRRT2-HA (Proline-Rich Transmembrane Protein 2, HA-tagged) (protein, UniProt Q7Z6L0 1-340)
chain: T2 sequence

binding [5]: no binding
B2: human PRRT2(1-268), HA-tagged N-terminal truncation (domain or fragment, UniProt Q7Z6L0 1-268)
chain: T3 sequence

binding [5]: binds
B3: human PRRT2(250-340), HA-tagged C-terminal truncation (domain or fragment, UniProt Q7Z6L0 250-340)
chain: T4 sequence

binding [1]: no binding
B4: mouse ATP1B2 (endogenous, brain) (protein, UniProt P14231 1-290)
chain: MVIQKEKKSCGQVVEEWKEFVWNPRTHQFMGRTGTSWAFILLFYLVFYGFLTAMFSLTMWVMLQTVSDHTPKYQDRLATPGLMIRPKTENLDVIVNISDTESWGQHVQKLNKFLEPYNDSIQAQKNDVCRPGRYYEQPDNGVLNYPKRACQFNRTQLGDCSGIGDPTHYGYSTGQPCVFIKMNRVINFYAGANQSMNVTCVGKRDEDAENLGHFVMFPANGSIDLMYFPYYGKKFHVNYTQPLVAVKFLNVTPNVEVNVECRINAANIATDDERDKFAGRVAFKLRINKT
